The other results are listed elsewhere or left out.
The sequences below were run against no compound (DMSO) (assay: log2 fold change of degron read counts, EGFP-low vs EGFP+ sorted cells; higher = lower degron-EGFP level without compound (poor expression or instability)). Settings: compound: DMSO control; 18 h.
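Further: jurkat cells carrying a lentiviral library of mutant zinc finger degrons fused to EGFP plus mCherry, mCherry+ cells FACS sorted, degron abundance counted by next-generation sequencing.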

Row | Sequence | log2 fold change of degron read counts
1 | FKCEQCGAAFTQKGNLLRHIKL | -2.66
2 | FNCNICGALFTQKGNLLRHIKL | 0.345
3 | LLCEICGFNCTQKGNLLRHIKL | 0.377
4 | FSCEICGAFFTQKGNLLRHIKL | -1.65
5 | FSCNQCGALFTQKGNLLRHIKL | -0.159
6 | FECEICGAVFTQKGNLLRHIKL | -1.56
7 | LDCNQCGFKCTQKGNLLRHIKL | 0.151
8 | LECNQCGFCCTQKGNLLRHIKL | -0.272
9 | FTCDICGAHFTQKGNLLRHIKL | -0.755
10 | FICDICGAPFTQKGNLLRHIKL | -0.732
11 | LECEICGFVCTQKGNLLRHIKL | -0.697
12 | FRCPICGAKFTQKGNLLRHIKL | 0.219
13 | LWCNQCGFECTQKGNLLRHIKL | 0.919
14 | FDCEQCGATFTQKGNLLRHIKL | -2.93
15 | LHCNQCGFTCTQKGNLLRHIKL | 0.105
16 | FRCDICGADFTQKGNLLRHIKL | -1.53
17 | FWCPICGHGFTQKGNLLRHIKL | 2.69
18 | FECPICGAAFTQKGNLLRHIKL | -0.59
19 | FACPVCGAIFTQKGNLLRHIKL | 0.00517
20 | FQCEQCGAEFTQKGNLLRHIKL | -1.92
21 | FECDVCGACFTQKGNLLRHIKL | -0.67
22 | FICEICGAFFTQKGNLLRHIKL | -0.723
23 | FRCPICGRWFTQKGNLLRHIKL | 1.03
24 | FDCPICGHIFTQKGNLLRHIKL | -0.205
25 | FYCPICGAHFTQKGNLLRHIKL | -0.0571

Row | Sequence | log2 fold change of degron read counts
26 | FFCEICGASFTQKGNLLRHIKL | -0.933
27 | FSCPICGHAFTQKGNLLRHIKL | -0.0976
28 | FVCEICGREFTQKGNLLRHIKL | -2.56
29 | FCCPICGRTFTQKGNLLRHIKL | -0.533
30 | FLCEICGAKFTQKGNLLRHIKL | -1.53
31 | FNCPQCGADFTQKGNLLRHIKL | -2.08
32 | FDCNQCGHLFTQKGNLLRHIKL | 1.19
33 | FACPICGAPFTQKGNLLRHIKL | 0.733
34 | FKCPICGALFTQKGNLLRHIKL | -0.515
35 | FWCEVCGAFFTQKGNLLRHIKL | 0.957
36 | FQCNVCGASFTQKGNLLRHIKL | -0.664
37 | FWCDQCGADFTQKGNLLRHIKL | -0.786
38 | FECEQCGAMFTQKGNLLRHIKL | -2.62
39 | FICPQCGAMFTQKGNLLRHIKL | 0.125
40 | FSCNQCGAMFTQKGNLLRHIKL | -0.913
41 | FICDQCGAPFTQKGNLLRHIKL | -1.39
42 | FGCNICGASFTQKGNLLRHIKL | -0.672
43 | FRCPVCGAHFTQKGNLLRHIKL | -0.667
44 | FHCNICGAVFTQKGNLLRHIKL | 0.0838
45 | FNCPICGAQFTQKGNLLRHIKL | -0.524
46 | FSCDVCGAEFTQKGNLLRHIKL | -1.51
47 | FRCPICGRTFTQKGNLLRHIKL | -0.537
48 | FDCPICGRFFTQKGNLLRHIKL | 0.611
49 | LLCEICGFYCTQKGNLLRHIKL | 1.18
50 | LVCPICGFTCTQKGNLLRHIKL | 0.0502

From the supplement of paper PMC12645437, “Orthogonal IMiD-Degron Pairs Induce Selective Protein Degradation in Cells” (ACS Chemical Biology, 2025)
